# Data published in PubChem BioAssay AID1477 (National Center for Advancing Translational Sciences (NCATS), 2009).
# In all, about 230,000 compounds went through this assay and fewer than 10 were called active. The inconclusive results got no clear call from the source; some entries with a clear call stand among them for comparison. Calls follow the shape of the dose curve; as a rule, active = well fitted curve in the direction sought with a large enough effect; inconclusive = small, poorly fitted or top-dose-only effect, or effect the other way, or another doubt; inactive = no such curve, though single readings can be large or run the other way. Potencies of inconclusive entries are left out as doubtful fits.
# Target: Runt-related transcription factor 1 (Homo sapiens) + Core-binding factor subunit beta (Homo sapiens) (UniProt Q01196+Q13951)
# Test: qHTS Assay for Compounds Blocking the Interaction Between CBF-beta and RUNX1 for the Treatment of Acute Myeloid Leukemia; as to activity, negative = inhibition: % of control where 0% means no effect
# Settings: AlphaScreen CBFb-His/RUNX1-biotin binding, biochemical; activity, negative = inhibition: at 59.8 µM (top of the series) unless noted
# Outline: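 Bead-based AlphaScreen assay; binding partners His-tagged CBF-beta and biotinylated RUNX1 at 30 nM each. Compound exposure 15 min after a 20-min protein preincubation; bead step 90 min; all steps at room temperature.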
# UniProt Q01196, sequence (Q01196 whole entry, looked up): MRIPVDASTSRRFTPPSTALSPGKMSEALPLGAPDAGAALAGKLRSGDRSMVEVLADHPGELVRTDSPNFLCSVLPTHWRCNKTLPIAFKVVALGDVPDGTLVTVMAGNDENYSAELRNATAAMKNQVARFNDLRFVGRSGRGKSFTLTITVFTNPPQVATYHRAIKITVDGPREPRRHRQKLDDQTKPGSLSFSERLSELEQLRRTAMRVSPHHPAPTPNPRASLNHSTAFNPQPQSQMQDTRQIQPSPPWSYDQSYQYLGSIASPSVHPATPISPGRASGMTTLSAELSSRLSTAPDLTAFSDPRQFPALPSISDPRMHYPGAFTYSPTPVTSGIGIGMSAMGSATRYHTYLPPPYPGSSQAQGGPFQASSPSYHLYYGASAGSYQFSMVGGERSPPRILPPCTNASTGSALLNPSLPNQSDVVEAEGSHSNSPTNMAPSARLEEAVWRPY
# UniProt Q01196, sequence (Q13951 whole entry, looked up): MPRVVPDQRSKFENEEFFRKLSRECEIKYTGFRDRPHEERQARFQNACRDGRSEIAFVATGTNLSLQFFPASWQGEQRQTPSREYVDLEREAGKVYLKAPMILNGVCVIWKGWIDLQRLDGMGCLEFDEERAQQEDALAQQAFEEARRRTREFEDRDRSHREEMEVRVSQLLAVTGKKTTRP
SMILES,Potency,"activity, negative = inhibition"
O=C(NCc1ccc(Cl)cc1Cl)c1ccccn1,"inconclusive [activator, partial curve]",
COc1ccccc1N1CCN(/N=C\C(Br)=C\c2ccccc2)CC1,"inconclusive [inhibitor, single point]",
CSCCOC(=O)c1[nH]c2c(c1C)C(=O)CC(c1ccco1)C2 (stereo unspecified),"inconclusive [inhibitor, single point]",
COc1cccc(CC2CC(=O)N(c3ccc4c(C)cc(=O)oc4c3)C2=O)c1 (stereo unspecified),"inconclusive [inhibitor, single point]",
COc1ccc(Cl)cc1C(=O)Nc1cccc(-c2ccc3nncn3n2)c1,"inconclusive [activator, partial curve]",
CC/C(C)=N/Nc1ccc(S(=O)(=O)N2CCCC2)cc1[N+](=O)[O-],"inconclusive [inhibitor, partial curve]",
COc1cccc(N=Nc2c(=O)[nH]n3c(=O)c4c([nH]c23)CCC4)c1,"inconclusive [inhibitor, single point]",
O=C1Nc2ccc([N+](=O)[O-])cc2C1(O)N1CCCCC1 (stereo unspecified),,inactive: -4.31%
COCO[C@H]([C@@H](C)C=C(Br)Br)[C@@H](C)COCc1ccc(OC)cc1,"inconclusive [activator, partial curve]",
COc1ccc(-c2csc(-c3cc4ccccc4oc3=N)n2)cc1,"inconclusive [activator, full curve]",
Cc1cc(C(=O)COC(=O)c2ccc[nH]c2=O)c(C)n1-c1ccc(Br)cc1,"inconclusive [inhibitor, single point]",
COc1ccc(C(=O)N/N=C/c2ccccn2)cc1OC,"inconclusive [inhibitor, partial curve]",
CC[n+]1ccc(C)c2cc(P(=O)(c3ccccc3)c3ccccc3)ccc21,"inconclusive [activator, partial curve]",
CCc1ccccc1NC(=S)N(CCN(C)C)C(C)c1ccccn1 (stereo unspecified),"inconclusive [inhibitor, partial curve]",
COc1cc(C)c(S(=O)(=O)n2ccc(C)n2)cc1C,,inactive: -0.209%
CCN(CC)c1ccc(/C=N/N2CCN(Cc3ccccc3)CC2)cc1,"inconclusive [inhibitor, single point]",
CN1c2ccsc2/C(=N/Nc2ccccc2)CS1(=O)=O,"inconclusive [inhibitor, partial curve, poor fit]",
COc1ccc(CC(=O)NNC(=O)c2ccncc2)cc1,,inactive: 6.06%
Cc1cccc(NCc2ccc(O)c3ncccc23)c1,"inconclusive [inhibitor, partial curve]",
COC(=O)c1sc2nc(C)cc(C)c2c1N,,inactive: 6.65%
CCn1c(SCC(=O)NCc2ccco2)nnc1-c1ccncc1,,inactive: -10.6%
N#Cc1c(N)sc(=S)c2c1CCN(Cc1ccccc1)C2,"inconclusive [inhibitor, partial curve]",
COc1cccc(NC(=O)/C=C/c2ccco2)c1,"inconclusive [inhibitor, single point]",
O=[N+]([O-])c1cc(Cc2ccccc2)cc(C=Nc2ccc(N3CCOCC3)cc2)c1O,"inconclusive [inhibitor, partial curve]",

SMILES,Potency,"activity, negative = inhibition"
NS(=O)(=O)c1ccc(NC(=O)COC(=O)C23CC4CC(CC(C4)C2)C3)cc1,"inconclusive [activator, single point]",
Cc1cnc(NC(=O)c2cc3c(C)nn(Cc4ccccc4Cl)c3s2)s1,,inactive: 4.65%
C[C@@H](NC(=O)/C(C#N)=C/c1ccc(O)c(O)c1)c1ccccc1,inactive,
COCc1cc(C)nc(SCC(=O)Oc2ccc(Cl)cc2)c1C#N,"inconclusive [activator, partial curve]",
COc1ccc(Oc2nc(-c3ccccn3)nc3ccccc23)cc1,"inconclusive [inhibitor, single point]",
C=CCNC(=O)c1cc(-c2ccc(Br)cc2)on1,"inconclusive [inhibitor, single point]",
O=c1c(/C=N/OCc2ccc(Cl)cc2Cl)c[nH]n1-c1cccc(Cl)n1,"inconclusive [inhibitor, single point]",
CCCOc1ccc(OCCN2CCCC(C)C2)cc1 (stereo unspecified),,inactive: 8.9%
Cc1ccc(C2=Nc3ccccc3N=C(C(Cl)Cl)C2)cc1,,inactive: -6.49%
O=C1C2C3C=CC(C4CC34)C2C(=O)N1/N=C/c1cccs1 (stereo unspecified),"inconclusive [inhibitor, full curve, poor fit]",
CCC(C)OC(=O)c1c(N)n(Cc2cccs2)c2nc3ccccc3nc12 (stereo unspecified),"inconclusive [activator, single point]",
COC(=O)c1ccc(C)c(-n2c(C)cc(C=O)c2C)c1,"inconclusive [inhibitor, full curve, poor fit]",
COc1ccc(/C=N/NC(=O)c2nn(-c3ccccc3)c(=O)c3c(N)scc23)cc1,"inconclusive [inhibitor, partial curve]",
COCCn1c(C23CC4CC(CC(C4)C2)C3)n[nH]c1=S,"inconclusive [inhibitor, single point]",
COc1cc2c(=O)n(Cc3ccccc3)c(=O)n(CC(=O)NCc3ccco3)c2cc1OC,,inactive: 16.4%
COc1cc([N+](=O)[O-])cc(/C=N/NC(=O)Cn2nc(C)cc2C)c1O,"inconclusive [inhibitor, partial curve]",
Nc1ccc(N2CCN(CCCCN3C(=O)C4CCCN4C3=O)CC2)cc1 (stereo unspecified),"inconclusive [inhibitor, single point]",
CCOc1ccc(NC(=S)Nc2cc(C)[nH]n2)cc1,,inactive: -0.204%
COc1ccc(-c2cc(-c3ccccc3)nc(N3CCCC3)n2)cc1OC,"inconclusive [activator, partial curve]",
CC(C)c1ccc2c(c1)C(c1ccc(N3CCOCC3)cc1)=NNC(c1cccs1)=N2,"inconclusive [inhibitor, single point]",
Cc1c(/C=N/Nc2ccc(F)cc2)c(O)n(C)c(=O)c1C#N,,inactive: -2.8%
O=C(c1cc2nc(-c3ccco3)cc(C(F)(F)F)n2n1)N1CCCc2ccccc21,,inactive: 14%
CC(C)(C)c1nc(N2CCN(C(=O)c3ccco3)CC2)c2nnn(Cc3ccccc3Cl)c2n1,,inactive: 5.01%
O=C(CSc1nc(-c2ccccc2)c(-c2ccccc2)o1)Nc1nnc(-c2ccccc2)s1,,inactive: 0.383%

SMILES,Potency,"activity, negative = inhibition"
Cc1cccc(NC(=O)COC(=O)c2cccc3c2C(=O)c2ccccc2C3=O)c1C,"inconclusive [inhibitor, single point]",
CSc1ccc(/C=N/NC(=O)CN2CCN(Cc3ccc(Cl)cc3)CC2)cc1,,inactive: -5.54%
O=[N+]([O-])c1cc(-c2ccc(/C=N/c3nc4ccccn4c3-c3ccco3)o2)ccc1Cl,"inconclusive [inhibitor, single point]",
O=C1CCC/C(=N\NC(=O)c2ccc(COc3cccc4cccnc34)cc2)C1,"inconclusive [inhibitor, single point]",
COc1ccccc1Cn1c(/C=C/c2ccccc2)nc2ccccc21,"inconclusive [inhibitor, single point]",
CC1CC(NC(=O)C2(C)CC2(Cl)Cl)CC(C)(C)C1 (stereo unspecified),,inactive: 0.537%
O=C(Nc1ccccc1)Nc1ccc(F)c([N+](=O)[O-])c1,,inactive: 4.31%
Cc1ccc(C)c(C(=O)COc2ncnc3ccccc23)c1,"inconclusive [inhibitor, single point]",
O=C(N/N=C/c1cccnc1)c1[nH]ncc1Br,,inactive: 1.15%
CC(C)=CCC/C(C)=C\COc1c2ccoc2cc2oc(=O)ccc12,"inconclusive [activator, partial curve]",
C=CCOc1ccc(C2NC(=S)NC3=C2CCc2ccccc23)cc1 (stereo unspecified),"inconclusive [inhibitor, single point]",
CC(C)(C)c1ccc(/C=C(\C#N)C(=O)NCCN2CCOCC2)cc1,,inactive: 8.47%
CCC1C/C(=C\c2cccnc2)C(=O)/C(=C/c2cccnc2)C1 (stereo unspecified),,inactive: -1.07%
CCOc1ccc(OCCN2CCCCC2)cc1,"inconclusive [activator, single point]",
COc1cc2c(cc1NC(=S)Nc1cccc3ccccc13)oc1ccccc12,"inconclusive [inhibitor, partial curve]",
O=C(CSCc1cnn(-c2ccccc2)c1-n1cccc1)NCc1ccccn1,,inactive: -6.57%
Cc1ccc(-n2cccc2/C=C2\C(=N)N3N=C(c4ccco4)SC3=NC2=O)cc1,"inconclusive [activator, partial curve]",
CN(C)C=Nc1nc2ccccc2nc1N1CCCC1,"inconclusive [activator, full curve, poor fit]",
CC1CN(c2cc(-c3ccccc3)c3ccccc3n2)CC(C)O1 (stereo unspecified),"inconclusive [activator, single point]",
COc1ccc(-c2noc(CCCOc3ccc(Cl)cc3Cl)n2)cc1,"inconclusive [activator, single point]",
CC(C)C[C@H](NC(=O)[C@H]1O[C@@H]1C(=O)O)C(=O)NCCCCN=C(N)N,"inconclusive [inhibitor, single point]",
COc1ccc(C(=O)OCc2nc(N)nc(Nc3ccccc3C)n2)cc1OC,,inactive: 6.6%
NC(=O)c1c(NC(=O)CSc2nnc(-c3ccco3)n2-c2ccccc2)sc2c1CCC2,"inconclusive [inhibitor, single point]",
